In article PMC4336329 (PLoS ONE, 2015):
The whole screen tested about 310,000 compounds, of which about 2,200 (0.71%) showed an effect of 50% or more. The effect is printed as a negative number. Some of the results follow.

The compounds below were run against human ether-à-go-go-related gene (hERG) potassium channel (human, UniProt Q12809) (assay: primary screen, population patch clamp on CHO cells stably expressing hERG).
human ether-à-go-go-related gene (hERG) potassium channel, sequence (Q12809 whole entry, looked up): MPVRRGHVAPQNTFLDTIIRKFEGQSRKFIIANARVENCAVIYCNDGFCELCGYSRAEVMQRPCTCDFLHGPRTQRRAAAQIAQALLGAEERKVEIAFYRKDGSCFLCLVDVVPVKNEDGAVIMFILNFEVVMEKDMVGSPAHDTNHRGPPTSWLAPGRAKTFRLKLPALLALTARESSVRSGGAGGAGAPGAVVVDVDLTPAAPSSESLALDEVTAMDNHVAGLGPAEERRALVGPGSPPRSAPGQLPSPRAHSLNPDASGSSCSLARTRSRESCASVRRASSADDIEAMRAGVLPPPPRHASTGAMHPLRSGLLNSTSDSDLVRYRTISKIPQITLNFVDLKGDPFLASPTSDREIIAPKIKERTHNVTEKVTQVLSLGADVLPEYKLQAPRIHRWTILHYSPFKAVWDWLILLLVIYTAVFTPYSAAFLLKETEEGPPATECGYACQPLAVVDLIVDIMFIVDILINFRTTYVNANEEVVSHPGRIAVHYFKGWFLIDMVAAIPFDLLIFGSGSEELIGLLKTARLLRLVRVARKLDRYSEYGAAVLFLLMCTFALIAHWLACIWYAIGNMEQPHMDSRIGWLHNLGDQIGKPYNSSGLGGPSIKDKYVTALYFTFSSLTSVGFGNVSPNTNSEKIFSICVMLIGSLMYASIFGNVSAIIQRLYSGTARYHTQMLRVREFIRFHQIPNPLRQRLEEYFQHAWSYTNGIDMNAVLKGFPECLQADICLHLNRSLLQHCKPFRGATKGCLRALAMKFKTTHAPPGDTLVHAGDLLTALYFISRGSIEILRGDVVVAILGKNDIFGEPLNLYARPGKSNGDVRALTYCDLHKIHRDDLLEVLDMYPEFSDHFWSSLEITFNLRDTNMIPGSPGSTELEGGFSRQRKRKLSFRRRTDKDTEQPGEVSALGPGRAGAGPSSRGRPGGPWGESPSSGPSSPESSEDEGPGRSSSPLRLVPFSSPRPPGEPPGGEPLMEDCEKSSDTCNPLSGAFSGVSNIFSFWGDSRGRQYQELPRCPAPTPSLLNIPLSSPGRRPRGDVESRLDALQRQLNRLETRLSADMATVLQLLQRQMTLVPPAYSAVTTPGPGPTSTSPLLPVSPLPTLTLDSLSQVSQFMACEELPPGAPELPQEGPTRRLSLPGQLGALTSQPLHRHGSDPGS
In the case of `Brc1ccccc1/C=N/Nc1ccc2ccccc2n1`, the “hERG current change (%, negative = inhibition) at 1uM” value is reported as 8.41%.
With `Cc1cc(OCC(=O)NNC(=S)NC(=O)c2ccc(Br)o2)ccc1Cl` the “hERG current change (%, negative = inhibition) at 1uM” value was 10.2%.
`CCOC(=O)C1CCN(c2nc(-c3ccccc3)nc3c2oc2ccccc23)CC1.Cl` was tested, and the “hERG current change (%, negative = inhibition) at 1uM” value was 10.9%.
In the case of `COCCNC(=O)C(C)OC(=O)c1nsc(Cl)c1Cl` (centres unmarked), the “hERG current change (%, negative = inhibition) at 1uM” value is reported as 5.62%.
For `CN(C(=O)COC(=O)c1ccc2c(c1)OCO2)C1CCS(=O)(=O)C1` (centres unmarked), the “hERG current change (%, negative = inhibition) at 1uM” value was 11.3%.
In the case of `CCCC1(c2ccccc2)NC(=O)NC1=O` (centres unmarked), the “hERG current change (%, negative = inhibition) at 1uM” value is reported as 18.7%.
`CCn1c(=O)c(C(=O)CN2CCN(S(=O)(=O)c3ccc(C)cc3C)CC2)c(N)n(Cc2ccccc2)c1=O` was tested, and the “hERG current change (%, negative = inhibition) at 1uM” value was 7.38%.
In the case of `O=[N+]([O-])c1cc(CN2CCCCCC2)ccc1O`, the “hERG current change (%, negative = inhibition) at 1uM” value is reported as 9.7%.
For `CCN1CCN(C(=O)C2c3cc(OC)c(OC)cc3C(=O)N3CCc4ccccc4C23)CC1` (centres unmarked), the “hERG current change (%, negative = inhibition) at 1uM” value was 13.6%.
`O=C(CCCCCCC(=O)NCc1ccccc1)NCc1ccccc1` was tested, and the “hERG current change (%, negative = inhibition) at 1uM” value was 17%.
In the case of `COc1ccc(NC(=O)CNC(=O)Cn2c(C)cc3ccccc3c2=O)c(OC)c1`, the “hERG current change (%, negative = inhibition) at 1uM” value is reported as 5.15%.
For `CCOC(=O)C1CCN(C(=O)C2CCN(S(=O)(=O)c3cccc4nsnc34)CC2)CC1`, the “hERG current change (%, negative = inhibition) at 1uM” value was 8.4%.
`Cc1sc(Nc2ccc([N+](=O)[O-])cc2)nc1-c1c(C)n(C)n(-c2ccccc2)c1=O` was tested, and the “hERG current change (%, negative = inhibition) at 1uM” value was 2.25%.
`O=C(NC1CCCCC1)N1CCC(c2nc3ccc(Cl)cc3[nH]2)CC1` was tested, and the “hERG current change (%, negative = inhibition) at 1uM” value was 6.29%.
In the case of `COc1ccc(-c2nc3c(Br)c(N)c(Br)cc3o2)cc1`, the “hERG current change (%, negative = inhibition) at 1uM” value is reported as 12.2%.
In the case of `COc1ccc(OCCn2nnc(-c3ccc(Cl)cc3)n2)cc1`, the “hERG current change (%, negative = inhibition) at 1uM” value is reported as 17.8%.
In the case of `CC(=O)c1ccc(NC(=S)N2CCCCCC2)cc1`, the “hERG current change (%, negative = inhibition) at 1uM” value is reported as 12.8%.
For `C[N+]1([O-])[C@@H]2Cc3cc4c(cc3[C@@H]1Cc1cc3c(cc12)OCO3)OCO4` (some centres unmarked), the “hERG current change (%, negative = inhibition) at 1uM” value was 11.1%.
For `O=S1(=O)CCS(=O)(=O)C1c1ccccc1`, the “hERG current change (%, negative = inhibition) at 1uM” value was 5.85%.
`O=C(c1ccco1)c1cn(Cc2ccccc2Cl)c2ccccc12` was tested, and the “hERG current change (%, negative = inhibition) at 1uM” value was 19.7%.
For `O=C(NNc1cc(Cl)cc(Cl)c1)C1CCC1`, the “hERG current change (%, negative = inhibition) at 1uM” value was 22.4%.
With `C/C(=N/NC(=O)c1cccc(N2CCCC2=O)c1)c1ccncc1` the “hERG current change (%, negative = inhibition) at 1uM” value was 14.1%.
In the case of `CCOc1cc(C)c(Cl)cc1S(=O)(=O)NC1CC(C)(C)NC(C)(C)C1`, the “hERG current change (%, negative = inhibition) at 1uM” value is reported as 15.1%.
In the case of `CC(=O)Nc1ccc(NC(=O)CSc2ccc(-c3cccs3)nn2)cc1`, the “hERG current change (%, negative = inhibition) at 1uM” value is reported as 7.59%.
With `Cc1ccc(S(=O)(=O)N/N=C/c2ccccc2O)cc1` the “hERG current change (%, negative = inhibition) at 1uM” value was 4.35%.
For `O=c1[nH]ncc(N/N=C\c2ccc(O)cc2O)c1Cl`, the “hERG current change (%, negative = inhibition) at 1uM” value was 9.3%.
With `Cc1nc2sccn2c(=O)c1S(=O)(=O)Nc1ccc(N2CCN(S(C)(=O)=O)CC2)cc1` the “hERG current change (%, negative = inhibition) at 1uM” value was 7.16%.
With `CCOC(=O)c1c(-c2ccc(-c3ccccc3)cc2)csc1NC(=O)CNCCN(C)C.Cl` the “hERG current change (%, negative = inhibition) at 1uM” value was 9.74%.
With `CC(=O)N1c2ccc(S(=O)(=O)NCCC(=O)Nc3ccc(OC(F)(F)F)cc3)cc2CC1C` (centres unmarked) the “hERG current change (%, negative = inhibition) at 1uM” value was 10.5%.
In the case of `O=Cc1ccc(OCC(=O)NCC2CCCO2)cc1` (centres unmarked), the “hERG current change (%, negative = inhibition) at 1uM” value is reported as 13.7%.
In the case of `CC1(C)CC(=O)C=C(NCCO)C1`, the “hERG current change (%, negative = inhibition) at 1uM” value is reported as 4.04%.
`COCC(=O)N1CCC(Oc2ccc(C(=O)NCCCC3CCCC3)cc2)CC1` was tested, and the “hERG current change (%, negative = inhibition) at 1uM” value was 7.47%.
For `NNC(=O)Cn1nc2n(c1=O)-c1ccccc1SC2`, the “hERG current change (%, negative = inhibition) at 1uM” value was 18.4%.
For `COc1ccc(/C=C(\NC(=O)c2ccco2)C(=O)NCc2ccco2)cc1`, the “hERG current change (%, negative = inhibition) at 1uM” value was 14.1%.
In the case of `C#CCNC(=O)C1=C[C@@H](c2ccc(C#C)cc2)C[C@@H](OCCCCO)O1`, the “hERG current change (%, negative = inhibition) at 1uM” value is reported as 12.3%.
`O=C(c1ccc([N+](=O)[O-])o1)N1CCN(Cc2ccccc2)CC1` was tested, and the “hERG current change (%, negative = inhibition) at 1uM” value was 6.21%.
For `Cc1cc(C)n(C(CC(=O)O)C(=O)O)n1` (centres unmarked), the “hERG current change (%, negative = inhibition) at 1uM” value was 10.4%.
`CC(C)NC(=O)COc1coc(CN2CCN(c3ccccc3F)CC2)cc1=O` was tested, and the “hERG current change (%, negative = inhibition) at 1uM” value was 12.5%.
In the case of `O=C(NCC1CCCO1)c1cc2n(n1)C(C(F)(F)F)CC(c1ccc(F)cc1)N2` (centres unmarked), the “hERG current change (%, negative = inhibition) at 1uM” value is reported as -3.61%.
For `CCc1nnc(NC(=O)CN2C(=O)CCC2=O)s1`, the “hERG current change (%, negative = inhibition) at 1uM” value was 11.6%.
`O=C(Nc1cccc(C(=O)O)c1)/C(=C\c1ccc2c(c1)OCO2)NC(=O)c1ccccc1Cl` was tested, and the “hERG current change (%, negative = inhibition) at 1uM” value was 9.69%.
With `CCCN1C2=NCCN2c2cc(C)c(C)cc21.Cl` the “hERG current change (%, negative = inhibition) at 1uM” value was -4.41%.
`Cc1cccn2c(=O)c3cc(C(=O)N4CCN(C(=O)c5ccco5)CC4)n(C)c3nc12` was tested, and the “hERG current change (%, negative = inhibition) at 1uM” value was 1.79%.
`COc1cc(C(=S)N2CCOCC2)ccc1OC(=O)c1ccccc1[N+](=O)[O-]` was tested, and the “hERG current change (%, negative = inhibition) at 1uM” value was 11.8%.
